Measured values reported in the supplement of paper PMC8728848.
This is one part of the list.

What was measured:
Test in all cases: glycan array binding signal (z-score within array); higher = stronger binding
Conditions in all cases: glycan notation: IUPAC condensed, linker removed
[1] = target: Neu5Ac(a2-3)Gal(b1-4)GlcNAc(b1-3)Gal(b1-4)GlcNAc(b1-3)Gal(b1-4)GlcNAc
Method in brief: (§1)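 Glycan array binding is given as a within-array Z-score, which can be read as non-binding when negative. The arrays, 3228 of them, came from the Consortium for Functional Glycomics database and were retained only where the protein sequence was available. Z-scores were averaged across arrays of the same protein sequence at different concentrations or buffers and across linkers.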

[2] = target: Neu5Ac(a2-3)Gal(b1-4)GlcNAc(b1-3)Gal(b1-4)GlcNAc(b1-3)Gal(b1-4)GlcNAc(b1-2)Man(a1-3)[Neu5Ac(a2-3)Gal(b1-4)GlcNAc(b1-3)Gal(b1-4)GlcNAc(b1-3)Gal(b1-4)GlcNAc(b1-2)Man(a1-6)]GalNAc
Method in brief: as §1

[3] = target: Neu5Ac(a2-3)Gal(b1-4)GlcNAc(b1-3)Gal(b1-4)GlcNAc(b1-3)GalNAc
Method in brief: as §1

[4] = target: Neu5Ac(a2-3)Gal(b1-4)GlcNAc(b1-3)Gal(b1-4)GlcNAc(b1-3)[Neu5Ac(a2-3)Gal(b1-4)GlcNAc(b1-3)Gal(b1-4)GlcNAc(b1-6)]GalNAc
Method in brief: as §1

[5] = target: Neu5Ac(a2-3)Gal(b1-4)GlcNAc(b1-3)Gal(b1-4)GlcNAc(b1-6)[Gal(b1-3)]GalNAc
Method in brief: as §1

[6] = target: Neu5Ac(a2-3)Gal(b1-4)GlcNAc(b1-3)Gal(b1-4)[Fuc(a1-3)]GlcNAc
Method in brief: as §1

[7] = target: Neu5Ac(a2-3)Gal(b1-4)GlcNAc(b1-3)GalNAc
Method in brief: as §1

[8] = target: Neu5Ac(a2-3)Gal(b1-4)GlcNAc(b1-3)[Neu5Ac(a2-3)Gal(b1-4)GlcNAc(b1-6)]GalNAc
Method in brief: as §1

[9] = target: Neu5Ac(a2-3)Gal(b1-4)GlcNAc(b1-6)GalNAc
Method in brief: as §1

[10] = target: Neu5Ac(a2-3)Gal(b1-4)GlcNAc(b1-6)[Gal(b1-3)]GalNAc
Method in brief: as §1

[11] = target: Neu5Ac(a2-3)Gal(b1-4)GlcNAc(b1-6)[Neu5Ac(a2-3)Gal(b1-3)]GalNAc
Method in brief: as §1

[12] = target: Neu5Ac(a2-3)Gal(b1-4)GlcNAc6S
Method in brief: as §1

[13] = target: Neu5Ac(a2-3)Gal(b1-4)[Fuc(a1-3)]GlcNAc
Method in brief: as §1

[14] = target: Neu5Ac(a2-3)Gal(b1-4)[Fuc(a1-3)]GlcNAc(b1-2)Man
Method in brief: as §1

[15] = target: Neu5Ac(a2-3)Gal(b1-4)[Fuc(a1-3)]GlcNAc(b1-3)Gal
Method in brief: as §1

[16] = target: Neu5Ac(a2-3)Gal(b1-4)[Fuc(a1-3)]GlcNAc(b1-3)Gal(b1-4)GlcNAc
Method in brief: as §1

[17] = target: Neu5Ac(a2-3)Gal(b1-4)[Fuc(a1-3)]GlcNAc(b1-3)Gal(b1-4)[Fuc(a1-3)]GlcNAc(b1-3)Gal(b1-4)[Fuc(a1-3)]GlcNAc
Method in brief: as §1

[18] = target: Neu5Ac(a2-3)Gal(b1-4)[Fuc(a1-3)]GlcNAc(b1-3)GalNAc
Method in brief: as §1

[19] = target: Neu5Ac(a2-3)Gal(b1-4)[Fuc(a1-3)]GlcNAc(b1-6)[Gal(b1-3)]GalNAc
Method in brief: as §1

[20] = target: Neu5Ac(a2-3)Gal(b1-4)[Fuc(a1-3)]GlcNAc(b1-6)[Neu5Ac(a2-3)Gal(b1-3)]GalNAc
Method in brief: as §1

[21] = target: Neu5Ac(a2-3)Gal(b1-4)[Fuc(a1-3)]GlcNAc6S
Method in brief: as §1

[22] = target: Neu5Ac(a2-3)Gal6S(b1-4)GlcNAc
Method in brief: as §1

[23] = target: Neu5Ac(a2-3)Gal6S(b1-4)[Fuc(a1-3)]GlcNAc
Method in brief: as §1

Neu5Ac(a2-3)GalNAc = target: Neu5Ac(a2-3)GalNAc
Method in brief: as §1

[24] = target: Neu5Ac(a2-3)GalNAc(b1-4)GlcNAc
Method in brief: as §1

[25] = target: Neu5Ac(a2-3)[GalNAc(b1-4)]Gal(b1-4)Glc
Method in brief: as §1

[26] = target: Neu5Ac(a2-3)[GalNAc(b1-4)]Gal(b1-4)GlcNAc
Method in brief: as §1

[27] = target: Neu5Ac(a2-3)[GalNAc(b1-4)]Gal(b1-4)GlcNAc(b1-3)GalNAc
Method in brief: as §1

[28] = target: Neu5Ac(a2-3)[Neu5Ac(a2-6)]GalNAc
Method in brief: as §1

Neu5Ac(a2-6)Gal = target: Neu5Ac(a2-6)Gal
Method in brief: as §1

[29] = target: Neu5Ac(a2-6)Gal(b1-3)GlcNAc(b1-3)[Gal(b1-4)GlcNAc(b1-6)]Gal(b1-4)Glc
Method in brief: as §1

Neu5Ac(a2-6)Gal(b1-4)Glc = target: Neu5Ac(a2-6)Gal(b1-4)Glc
Method in brief: as §1

[30] = target: Neu5Ac(a2-6)Gal(b1-4)GlcNAc
Method in brief: as §1

[31] = target: Neu5Ac(a2-6)Gal(b1-4)GlcNAc(b1-2)Man
Method in brief: as §1

[32] = target: Neu5Ac(a2-6)Gal(b1-4)GlcNAc(b1-2)Man(a1-3)Man(b1-4)GlcNAc(b1-4)GlcNAc
Method in brief: as §1

[33] = target: Neu5Ac(a2-6)Gal(b1-4)GlcNAc(b1-2)Man(a1-3)[Gal(b1-4)GlcNAc(b1-2)Man(a1-6)]Man(b1-4)GlcNAc(b1-4)GlcNAc
Method in brief: as §1

[34] = target: Neu5Ac(a2-6)Gal(b1-4)GlcNAc(b1-2)Man(a1-3)[GlcNAc(b1-2)Man(a1-6)]Man(b1-4)GlcNAc(b1-4)GlcNAc
Method in brief: as §1

[35] = target: Neu5Ac(a2-6)Gal(b1-4)GlcNAc(b1-2)Man(a1-3)[GlcNAc(b1-4)][Neu5Ac(a2-6)Gal(b1-4)GlcNAc(b1-2)Man(a1-6)]Man(b1-4)GlcNAc(b1-4)GlcNAc
Method in brief: as §1

B1: Tamarinin (protein)
chain: CDDSARAGNIVVYWGQGGSDNSEGSLKEACKSGHYNMIVLQQLIVYDDGRDPDLNLGAHCSDCTKLEEQIKYCQNKDIKILLQIGQVVPTQEDVKDVTKNLSEYLLKNFFSGKSGPLGEVYLNGIDIASVPEGNNLKFDELVEALNDSSTERRIYLSASPLCVYPDYYLNKAIQTEKLDFLFVQFFYQNPCIYTEGNPENLFEAMKTWTKNVPESMIFMALPATPNLDGYIPPRVLNKEILPAVSEASNFAGVMIFDRYFDRFRKYSSKIK
- glycan array binding signal (z-score) [1]: -0.251
- glycan array binding signal (z-score) [2]: -0.109
- glycan array binding signal (z-score) [3]: -0.398
- glycan array binding signal (z-score) [4]: -0.344
- glycan array binding signal (z-score) [5]: -0.291
- glycan array binding signal (z-score) [6]: -0.359
- glycan array binding signal (z-score) [7]: -0.062
- glycan array binding signal (z-score) [8]: -0.316
- glycan array binding signal (z-score) [9]: -0.136
- glycan array binding signal (z-score) [10]: -0.062
- glycan array binding signal (z-score) [11]: -0.43
- glycan array binding signal (z-score) [12]: -0.282
- glycan array binding signal (z-score) [13]: -0.501
- glycan array binding signal (z-score) [14]: -0.21
- glycan array binding signal (z-score) [15]: -0.489
- glycan array binding signal (z-score) [16]: -0.229
- glycan array binding signal (z-score) [17]: -0.264
- glycan array binding signal (z-score) [18]: -0.389
- glycan array binding signal (z-score) [19]: -0.269
- glycan array binding signal (z-score) [20]: -0.162
- glycan array binding signal (z-score) [21]: -0.185
- glycan array binding signal (z-score) [22]: -0.468
- glycan array binding signal (z-score) [23]: -0.371
- glycan array binding signal (z-score) (Neu5Ac(a2-3)GalNAc): -0.148
- glycan array binding signal (z-score) [24]: 1.16
- glycan array binding signal (z-score) [25]: -0.447
- glycan array binding signal (z-score) [26]: -0.449
- glycan array binding signal (z-score) [27]: -0.275
- glycan array binding signal (z-score) [28]: -0.485
- glycan array binding signal (z-score) (Neu5Ac(a2-6)Gal): -0.376
- glycan array binding signal (z-score) [29]: -0.386
- glycan array binding signal (z-score) (Neu5Ac(a2-6)Gal(b1-4)Glc): -0.292
- glycan array binding signal (z-score) [30]: -0.341
- glycan array binding signal (z-score) [31]: -0.14
- glycan array binding signal (z-score) [32]: -0.348
- glycan array binding signal (z-score) [33]: -0.313
- glycan array binding signal (z-score) [34]: -0.421
- glycan array binding signal (z-score) [35]: -0.541
